# Assay results taken from PubChem BioAssay (NCATS).
# This list was built around the results that the source calls inconclusive (neither active nor inactive); the mix of calls is not that of the screen. For some of these results: A potency beside an inconclusive call is a rough fit, not a confirmed value. Calls of active or inactive are those of the source. Unless noted, calls come from the whole dose curve; as a rule, active = well fitted curve in the direction sought with a large enough effect; inconclusive = small, poorly fitted or top-dose-only effect, or another doubt; inactive = no such curve, though single readings can be large; an effect the other way counts as inactive or inconclusive.
# What was measured:
# [1] = tested on: Zika virus NS2B-NS3 protease (linked construct); assay: Confirmatory screen NINDS AMC qHTS for Zika virus inhibitors (AID 1347152); note: nearly all actives have a fitted effect of over 70% in size; note: potency is the fitted concentration of half-maximal effect;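 for activity change, negative = inhibition: AMC fluorescence gain from cleaved Bz-Nle-KRR-AMC substrate over 15 min; top concentration of the series differs between compounds; 0% = no-inhibitor control and -100% = no-enzyme control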
# Summary of the method: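 Linked NS2B-NS3 protease, 1 nM, in 10 mM Tris-HCl pH 8.0, 0.01% Tween 20; compounds preincubated 15 min at room temperature. Nle-KRR-AMC 10 microM (Km 18.3 µM); 15-min fluorescence change (340/450 nm) fitted to 4-parameter Hill.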
# [2] = tested on: Zika virus NS2B-NS3 protease (unlinked complex); assay: Confirmatory screen GU AMC qHTS for Zika virus inhibitors (AID 1347153); note: nearly all actives have a fitted effect of over 70% in size; note: potency is the fitted concentration of half-maximal effect
# Summary of the method: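 Unlinked enzyme 25 nM, Tris pH 8.0/0.01% Tween 20; cpd 15 min RT, dark; + AMC substrate 10 µM (Km 18.3 µM); 340/450 nm read at t0 and 15 min; % inhibition → 4-param fit.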
# [3] = ZIKV-mCherry secondary qHTS for Zika virus inhibitors (AID 1347158); conditions: Vero cells, ZIKV-mCherry infection imaging, 48-72 h; activity change, negative = inhibition: at 49.2 µM (top of the series); note: potency is the fitted concentration of half-maximal effect; for activity change, negative = inhibition: top concentration of the series differs between compounds
# Summary of the method: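 Compounds were tested in Vero monkey kidney cells infected with recombinant mCherry-expressing Zika virus at MOI 1 for 48-72 h at 37 °C. Fixed cells were nuclear-stained and imaged, and infection rate was taken as the fraction of mCherry-positive cells.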
# [4] = tested on: Zika virus NS2B-NS3 protease (linked); assay: 384 well plate NINDS AMC confirmatory qHTS for Zika virus inhibitors (AID 1347163); note: nearly all actives have a fitted effect of over 50% in size; note: potency is the fitted concentration of half-maximal effect;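 for activity change, negative = inhibition: linked protease at 5 30 or 60 nM final depending on run; fluorescence of AMC released from Ac-VKTGKR-AMC peptide cleaved by the protease; top concentration of the series differs between compounds; 0% = no-inhibitor control and -100% = no-enzyme control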
# Summary of the method: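 Fluorescence at 355/460 nm was read after 25 minutes of cleavage of 30 microM Ac-VKTGKR-AMC at room temperature, in the dark. Before substrate addition, compounds (up to 1 mM final) sat ~15 minutes with 5, 30 or 60 nM linked protease. Signals were normalized to no-enzyme and no-inhibitor wells.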
# [5] = Tertiary RLuc qRT-PCR qHTS assay for Zika virus inhibitors (AID 1347169); note: nearly all actives have a fitted effect of over 55% in size; note: potency is the fitted concentration of half-maximal effect; for activity change, negative = inhibition: top concentration of the series differs between compounds; % is set by controls: 0 for no effect and ±100 for the full control effect
# Summary of the method: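 Vero cells (1,000/well) infected with recombinant ZIKV-RLuc (Cambodian) at MOI 1-2 after compound addition, 48-72 hrs at 37 degrees C. Live-cell Renilla luciferase substrate added; luminescence read after 1-1.5 hrs.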
# [6] = tested on: Zika virus NS2B-NS3 protease; assay: Primary screen GU AMC qHTS for Zika virus inhibitors (AID 1347154); note: nearly all actives have a fitted effect of over 70% in size; note: potency is the fitted concentration of half-maximal effect;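 for activity change, negative = inhibition: 0% = no-inhibitor control and -100% = no-enzyme control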
# Summary of the method: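 Fluorogenic AMC-substrate cleavage by noncovalent NS2B-NS3 protease complex (25 nM, pH 8.0 Tris buffer with Tween 20) followed for 15 minutes at room temperature (~20% conversion). Percent inhibition from ex340/em450 signal change, fitted by 4-parameter Hill equation.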
# [7] = Confirmatory screen NINDS Rhodamine qHTS for Zika virus inhibitors (AID 1347161); note: nearly all actives have a fitted effect of over 60% in size; note: potency is the fitted concentration of half-maximal effect;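 for activity change, negative = inhibition: purified Zika NS2B-NS3 protease with linked NS2B cofactor domain and Rhodamine110 peptide substrate; plate controls were no-inhibitor control for no effect and no-enzyme control for full effect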
# Summary of the method: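 In 10 mM Tris-HCl pH 8.0 containing 0.01% Tween 20, linked NS2B-NS3 protease (25 nM final) is exposed to test compounds for 15 min. Cleavage of 1.5 microM Rhodamine110 substrate is tracked by fluorescence over 15 min.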
# [8] = tested on: Zika virus NS2B-NS3 protease (unlinked complex); assay: Primary screen GU Rhodamine qHTS for Zika virus inhibitors: Unlinked NS2B-NS3 protease assay (AID 1347159); note: potency is the fitted concentration of half-maximal effect; nearly all actives have a fitted effect of over 60% in size
# Summary of the method: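 Unlinked NS2B/NS3, 25 nM; Rhod110 peptide, 1.5 microM; compounds, up to 114 microM. Reaction run 15 min at RT in 10 mM Tris-HCl pH 8.0, 0.01% Tween 20; kinetic fluorescence change fitted with a 4-parameter Hill model.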
# [9] = tested on: Zika virus NS2B-NS3 protease (linked construct); assay: 384 well plate NINDS Rhodamine confirmatory qHTS for Zika virus inhibitors (AID 1347164);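 note: fluorescence from protease cleavage of Ac-LKRR-rhodamine 110 substrate; top concentration of the series differs between compounds; plate controls were no-inhibitor control for no effect and no-enzyme control for full effect; nearly all actives have a fitted effect of over 65% in size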
# Summary of the method: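 Linked NS2B-NS3 protease (final 5, 30 or 60 nM) preincubated ~15 minutes with compounds, then 10 microM Ac-LKRR-Rhodamine 110 added. Fluorescence (485/538 nm) read after 25 minutes at room temperature, normalized to no-enzyme and no-inhibitor controls.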
# [10] = molecular target: Cytochrome P450 2D6 (Homo sapiens) (UniProt P10635); assay: Cytochrome P450 family 2 subfamily D member 6 (CYP2D6) small molecule antagonists: luciferase biochemical (cell-free) qHTS assay (AID 1645840; active = well fitted curve in the direction sought with a large enough effect in the repeat runs; inconclusive = weak or mixed curves; inactive = no such curve, though single readings can be large; an effect the other way counts as inactive or inconclusive; note: potency is the fitted concentration of half-maximal effect; nearly all actives have a fitted effect of over 55% in size)
# Sequence of UniProt P10635 (P10635 whole entry, looked up): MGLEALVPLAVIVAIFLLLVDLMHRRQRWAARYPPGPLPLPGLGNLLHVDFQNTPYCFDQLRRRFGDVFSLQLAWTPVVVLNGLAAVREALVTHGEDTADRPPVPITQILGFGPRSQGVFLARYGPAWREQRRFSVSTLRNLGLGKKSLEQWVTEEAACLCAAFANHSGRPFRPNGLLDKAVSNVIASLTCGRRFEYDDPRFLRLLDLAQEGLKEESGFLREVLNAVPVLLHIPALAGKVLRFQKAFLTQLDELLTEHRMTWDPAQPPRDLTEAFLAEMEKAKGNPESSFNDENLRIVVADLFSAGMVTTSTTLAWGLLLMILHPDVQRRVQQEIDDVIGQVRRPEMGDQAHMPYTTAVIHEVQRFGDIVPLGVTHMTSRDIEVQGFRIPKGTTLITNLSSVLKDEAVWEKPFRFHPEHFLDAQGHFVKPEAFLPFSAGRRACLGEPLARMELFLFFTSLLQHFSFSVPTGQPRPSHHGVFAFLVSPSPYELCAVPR
# Summary of the method: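 P450-Glo CYP2D6 system: proluciferin substrate converted by enzyme to luciferin, read by luminescence proportional to activity. Enzyme-substrate mix with compound 10 min at room temperature, then NADPH regeneration 1 h before detection reagent.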
# [11] = molecular target: Phospholipid hydroperoxide glutathione peroxidase GPX4 (Homo sapiens) (UniProt P36969); assay: Primary qHTS Assay for Inhibitors of Recombinant Selenoprotein Glutathione Peroxidase 4 (GPX4) (AID 1845192); note: potency is the fitted concentration of half-maximal effect; nearly all actives have a fitted effect of over 65% in size
# Sequence of UniProt P36969 (P36969 whole entry, looked up): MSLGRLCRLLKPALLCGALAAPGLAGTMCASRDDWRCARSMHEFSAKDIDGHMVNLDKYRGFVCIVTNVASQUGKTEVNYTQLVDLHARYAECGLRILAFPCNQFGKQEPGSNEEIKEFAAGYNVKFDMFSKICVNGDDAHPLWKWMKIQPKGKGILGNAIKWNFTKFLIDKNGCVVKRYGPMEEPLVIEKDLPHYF
# Summary of the method: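 NADPH consumption followed by fluorescence at 340/450 nm, t=0 and after 15 min at room temperature. Reaction started with cumene hydroperoxide (0.5 mM final) after 30 min compound–GPX4 preincubation; final 200 nM GPX4, 100 nM GR, 1 mM GSH, 0.5 mM NADPH.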
# [12] = tested on: Nanoluciferase (engineered Oplophorus gracilirostris luciferase); assay: Primary Nanoluciferase (NLuc) qHTS assay for identification of artifact compounds. (AID 1845222); conditions: NLuc-conditioned medium, Nano-Glo luminescence, 5 min; note: potency is the fitted concentration of half-maximal effect
# Summary of the method: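 Luminescence from secreted NLuc (filtered, 1:55-diluted S16 cell medium) read 5 min after Nano-Glo substrate; compounds preincubated 15 min, RT. Hill fits of inhibition normalized to DMSO and no-enzyme.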
# Tags give direction and shape of the fitted curve.
structure (smiles),measurement,setting,value
O=C(O)COc1ccc(-c2nccc3c2C(=O)N(Cc2cccc(C(F)(F)F)c2)CC(COc2ccc4cnccc4c2)O3)cc1 (stereo unspecified),Potency,[1],"inconclusive: 87.9 µM [inhibitor, single point]"
same,Potency,[2],"inconclusive: 55.5 µM [inhibitor, partial curve]"
same,Potency,[3],"inconclusive: 11.2 µM [inhibitor, full curve, poor fit]"
same,Potency,[4],"inconclusive: 158 µM [inhibitor, partial curve]"
O=C(Nc1cccc2ccccc12)O[C@@H]1CO[C@H]2[C@@H]1OC[C@@H]2NS(=O)(=O)c1ccc2ccccc2c1,Potency,[1],inactive
same,Potency,[5],"inconclusive: 26.2 µM [inhibitor, partial curve, poor fit]"
O=C(CCCCCN1C(=O)c2cccc3cccc(c23)C1=O)NO,Potency,[6],"inconclusive: 21.2 µM [inhibitor, partial curve]"
O=C(O)COc1ccc(-c2nccc3c2C(=O)N(Cc2cccc(C(F)(F)F)c2)CC(CNC(=O)c2cccc(Cl)c2)O3)cc1 (stereo unspecified),Potency,[1],"inconclusive: 49.4 µM [inhibitor, partial curve]"
same,Potency,[3],"inconclusive: 17.8 µM [inhibitor, partial curve, poor fit]"
same,Potency,[4],inactive
COc1ccc(-c2nc3cc(F)ccc3s2)cc1OC,Potency,[1],"inconclusive: 2.42 µM [inhibitor, partial curve]"
same,Potency,[6],"inconclusive: 1.5 µM [inhibitor, partial curve]"
same,"activity change, negative = inhibition",[7],inactive: -16.8% [at 12.7 µM]
same,"activity change, negative = inhibition",[5],inactive: 3.98% [at 3.57 µM]
Fc1cc(C2=Nn3c(COc4ccc(Cl)cc4Cl)nnc3S/C2=C\c2ccc(-c3ccc(Cl)cc3)o2)c(Cl)cc1Cl,Potency,[1],"inconclusive: 44.7 µM [inhibitor, partial curve]"
same,Potency,[3],inactive
same,Potency,[7],"inconclusive: 28.2 µM [inhibitor, partial curve]"
same,Potency,[5],inactive
CC[C@@H](C)[C@H](NS(=O)(=O)c1cccc2ccccc12)C(=O)N[C@H](C=O)Cc1c[nH]c2ccccc12,Potency,[6],inactive
OCc1cc2c(cn1)[nH]c1ccccc12,Potency,[6],active: 26.7 µM
CC(C)CN1CC(COc2cccc(C(F)(F)F)c2)Oc2ccnc(-c3ccc(OCC(=O)O)cc3)c2C1=O (stereo unspecified),Potency,[1],inactive
same,Potency,[3],"inconclusive: 2.51 µM [inhibitor, full curve, poor fit]"
same,Potency,[4],"inconclusive: 398 µM [inhibitor, partial curve, poor fit]"
Cc1ncccc1OCC1CN(Cc2cccc(C(F)(F)F)c2)C(=O)c2c(ccnc2-c2ccc(OCC(=O)O)cc2)O1 (stereo unspecified),Potency,[2],inactive
CC(C)C(=O)c1cn(CC(=O)COc2ccc(Oc3ccccc3)cc2)c2ccc(C(=O)O)cc12,Potency,[1],active: 44.1 µM
same,Potency,[8],active: 8.91 µM
same,"activity change, negative = inhibition",[9],inactive: -191% [at 100 µM]
same,Potency,[5],active: 18.6 µM
same,Potency,[10],"inconclusive: 37.9 µM [inhibitor, partial curve, poor fit]"
same,Potency,[11],"inconclusive: 20.2 µM [inhibitor, partial curve]"
same,Potency,[12],active: 6.01 µM
